Measured values taken from the RNAGym collection of RNA variant scans (doi:10.1093/nar/gkz1192).
The source gives no read counts; variants with many changes may rest on few reads.

B1: CPEB3 Ribozyme (parent)
chain: UAACAGGGGGCCACAGCAGAAGCGUUCACGUCGCAGCCCCUGUCAGAUUCUGGUGAAUCUGCGAAUUCUGCUGUAUAUCUC

Variants of: B1
Assay: self-cleavage, relative activity (ratio to wild type); higher = more cleavage; in vitro, sequencing
How it was run: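 For each CPEB3 ribozyme variant, relative activity is its cleaved/total read fraction divided by the unmutated ribozyme's. Barcoded error-prone PCR libraries were transcribed by T7 RNA polymerase (5 hours, 37°C) and held in DNase I for 15 min before an EDTA stop, with cleavage occurring throughout. Template-switching reverse transcription and Illumina sequencing were used to read the RNAs. A 5-read minimum applied, and results are the mean of three batches.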

| Variant | self-cleavage |
| --- | --- |
| A3U G8U U26A U41C U48C A65G | 0.04 |
| A3U G8U U41A | 0.33 |
| A3U G9A A13G A28G | 0.17 |
| A3U G9A A18G U25A G46A U49A U58A | 0.04 |
| A3U G9A A21G U60C C62U U78G | 0.13 |
| A3U G9A U31C A64U | 0.15 |
| A3U G9A U66C | 0.11 |
| A3U G9C A15G U31C U43C | 0.03 |
| A3U G9C A47U U51C | 0.14 |
| A3U G9C G30U G33U U51G A64G U66C | 0.06 |
| A3U G9C U31A A35U C38U U67C U78C | 0.04 |
| A3U G9C U60A | 0.08 |
| A3U G9U A35G A45G U51C A65U U76A | 0.06 |
| A3U G9U U31C | 0.05 |
| A3U G10A A47G | 0.45 |
| A3U G10A C40U U74C A75G | 0.32 |
| A3U G10A U43C A45U U54A U66A A75G | 0.04 |
| A3U G10A U58C | 0.07 |
| A3U G10U A15G U58C C68A U69C U78C | 0.03 |
| A3U G16U U26C A35G G55A | 0.11 |
| A3U G19U C40U U43G U48C U60G | 0.34 |

| Variant | self-cleavage |
| --- | --- |
| A3U G19U U26A U51A U69C | 0.17 |
| A3U G22A G30C U41C U60C | 0.24 |
| A3U G24A G36U U41C | 0.11 |
| A3U G24C A28G C44A | 0.31 |
| A3U G24C U31C G46U A65G U80C | 0.2 |
| A3U G33A U43C A65G | 0.14 |
| A3U G33A U43C G55U A64U U80C | 0.08 |
| A3U G33U G61C | 0.1 |
| A3U G33U U51C U60C U66C U72C U78C | 0.12 |
| A3U G36A A56U | 0.14 |
| A3U G36U U41C U49A U60C | 0.11 |
| A3U G53A U69C | 0.71 |
| A3U G63A U78C | 0.8 |
| A3U U25A U48C U66C U67C U69C U72C | 0.23 |
| A3U U25C A28U A47G A64G U76G | 0.08 |
| A3U U25C A35G A56G U58A | 0.23 |
| A3U U25C A35G A64G A77G | 0.4 |
| A3U U25C A45G | 0.8 |
| A3U U25C A45U | 0.51 |
| A3U U25C A56G | 0.3 |
| A3U U25C C29U U48C A56G C62A U80C | 0.14 |

| Variant | self-cleavage |
| --- | --- |
| A3U U25C C38A | 0.39 |
| A3U U25C C40A A45C A65G | 0.48 |
| A3U U25C U31A C40U A64G C68A | 0.11 |
| A3U U25C U31C | 0.2 |
| A3U U25C U31C U43A A57U | 0.24 |
| A3U U25C U41G A47U A56U A57U | 0.13 |
| A3U U25C U54A U60C U69C | 0.09 |
| A3U U25C U66C U72C U74C U80C | 0.28 |
| A3U U26C A35U A57G C79U | 0.22 |
| A3U U26C A47G U48C A57G U80C | 0.27 |
| A3U U26C C59A U60C U80G | 0.33 |
| A3U U26C G36U U78C | 0.47 |
| A3U U26C U41G A57G U66C G70A U80C | 0.37 |
| A3U U26G U31C C71A | 0.04 |
| A3U U31A U49C U80C | 0.55 |
| A3U U31C A47G U80A | 1.06 |
| A3U U31C C40U U48C | 0.12 |
| A3U U31G A35G | 1.17 |
| A3U U41A G61C U67C U78C | 0.17 |
| A3U U41A U51A U60A | 0.29 |
| A3U U41C G42C U76C | 0.1 |

| Variant | self-cleavage |
| --- | --- |
| A3U U41C G63A A65G | 0.47 |
| A3U U41C U54C | 0.88 |
| A3U U41C U80C | 0.96 |
| A3U U43C A57G U58C U66C U74A | 0.08 |
| A3U U43C U74A | 1.1 |
| A3U U48A A75G | 0.48 |
| A3U U48C G52A U54C | 0.75 |
| A3U U48C G70A U78C | 0.47 |
| A3U U49A C79U | 1.04 |
| A3U U49C A56G U72C | 0.96 |
| A3U U49C G73A | 0.87 |
| A3U U49C U69C | 0.28 |
| A3U U49C U80C | 0.51 |
| A3U U51A A65U U66C | 0.27 |
| A3U U51A C59U | 0.97 |
| A3U U51A U72A | 1.08 |
| A3U U51A U74C | 1.23 |
| A3U U51C A56G A64U | 0.18 |
| A3U U51C A57G U66C | 0.4 |
| A3U U51C U58A | 0.29 |
